Results are given in words; binding and its absence hold for the method and conditions named. In cells and extracts the contact can be indirect. Some binding calls cover weakened binding; strength is not graded here. For some of these results: Tags and fused reporters may be left off the sequences shown.
Molecular target: importin‐α‐myc (wild type) (S. cerevisiae) (UniProt Q02821)
Assay: co-IP; c‐myc beads incubated overnight with 1 mg lysate of yeast cells expressing both Nup2‐GFP (wild type or variant) and importin‐α‐myc, in 500 μL PBSMT; bound and unbound fractions blotted with α‐GFP and α‐myc

Protein sequences, listed by entry. Tags and fused reporters are not part of them. Lines headed by an entry give the natural chain unless they say otherwise; changes in a name come on top. Chains listed by the source or under a name are the forms on record and can include a tag or linker. Residues count along the entry.
importin‐α‐myc (wild type) (Q02821, residues 1-530): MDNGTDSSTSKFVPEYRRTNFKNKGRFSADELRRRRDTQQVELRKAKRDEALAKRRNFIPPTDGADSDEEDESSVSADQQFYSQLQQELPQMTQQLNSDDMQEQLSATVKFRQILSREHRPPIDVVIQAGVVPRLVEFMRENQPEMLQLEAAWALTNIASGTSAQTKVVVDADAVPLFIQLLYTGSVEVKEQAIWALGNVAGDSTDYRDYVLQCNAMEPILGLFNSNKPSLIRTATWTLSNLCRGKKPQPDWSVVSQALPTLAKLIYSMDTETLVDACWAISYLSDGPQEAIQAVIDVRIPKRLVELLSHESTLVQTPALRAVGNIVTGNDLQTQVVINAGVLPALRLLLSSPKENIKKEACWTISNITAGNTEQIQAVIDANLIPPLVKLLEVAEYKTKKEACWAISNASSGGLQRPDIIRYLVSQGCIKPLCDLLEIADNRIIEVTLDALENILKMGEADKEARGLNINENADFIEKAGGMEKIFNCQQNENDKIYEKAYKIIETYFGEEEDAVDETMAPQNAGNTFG
R44A importin‐α‐myc (Q02821, form named): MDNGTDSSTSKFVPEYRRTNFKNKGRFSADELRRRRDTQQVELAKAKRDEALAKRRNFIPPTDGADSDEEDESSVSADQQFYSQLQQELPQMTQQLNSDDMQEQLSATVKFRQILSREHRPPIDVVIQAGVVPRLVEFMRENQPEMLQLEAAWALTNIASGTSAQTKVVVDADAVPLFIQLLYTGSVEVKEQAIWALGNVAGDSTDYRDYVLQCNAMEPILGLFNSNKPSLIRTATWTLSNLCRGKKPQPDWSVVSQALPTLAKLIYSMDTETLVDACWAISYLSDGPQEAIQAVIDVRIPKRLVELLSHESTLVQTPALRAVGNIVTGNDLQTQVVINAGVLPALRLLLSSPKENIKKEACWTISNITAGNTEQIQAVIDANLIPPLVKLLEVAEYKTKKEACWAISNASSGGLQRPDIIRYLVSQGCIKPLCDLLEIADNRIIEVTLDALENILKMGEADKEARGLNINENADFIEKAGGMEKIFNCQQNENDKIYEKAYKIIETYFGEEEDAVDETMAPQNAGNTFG
UniProt P32499: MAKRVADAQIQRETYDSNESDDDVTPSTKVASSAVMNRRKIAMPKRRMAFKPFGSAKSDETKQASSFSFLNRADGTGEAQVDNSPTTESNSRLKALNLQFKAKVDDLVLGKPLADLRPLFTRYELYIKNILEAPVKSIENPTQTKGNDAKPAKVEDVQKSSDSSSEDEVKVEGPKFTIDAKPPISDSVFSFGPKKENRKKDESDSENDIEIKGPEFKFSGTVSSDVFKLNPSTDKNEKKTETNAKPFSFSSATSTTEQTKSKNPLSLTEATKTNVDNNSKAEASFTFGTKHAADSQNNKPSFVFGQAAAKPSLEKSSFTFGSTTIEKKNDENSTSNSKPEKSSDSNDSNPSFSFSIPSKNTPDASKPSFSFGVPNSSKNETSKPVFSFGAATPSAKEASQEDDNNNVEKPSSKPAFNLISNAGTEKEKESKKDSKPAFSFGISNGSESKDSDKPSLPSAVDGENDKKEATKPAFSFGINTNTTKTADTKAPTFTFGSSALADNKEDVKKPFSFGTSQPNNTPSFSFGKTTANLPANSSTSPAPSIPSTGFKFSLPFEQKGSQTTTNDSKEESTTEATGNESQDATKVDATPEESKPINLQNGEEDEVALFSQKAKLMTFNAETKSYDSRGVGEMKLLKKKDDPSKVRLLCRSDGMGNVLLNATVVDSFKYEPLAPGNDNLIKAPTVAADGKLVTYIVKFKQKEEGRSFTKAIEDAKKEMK

binding | Substance
no binding | K3E/R4D/R38A/R39A/R46A/R47A Nup2‐GFP (from UniProt P32499 1-720)
binds | K3E/R4D Nup2‐GFP (from UniProt P32499 1-720)
no binding | Δ50 Nup2‐GFP (from UniProt P32499 51-720) (domain or fragment)
binds | R38A/R39A/R46A/R47A Nup2‐GFP (from UniProt P32499 1-720)
binds | Nup2‐GFP (wild type) (from UniProt P32499 1-720)

Molecular target: T1, Cse1‐GST (wild type) (S. cerevisiae) (UniProt P33307)
T1 sequence: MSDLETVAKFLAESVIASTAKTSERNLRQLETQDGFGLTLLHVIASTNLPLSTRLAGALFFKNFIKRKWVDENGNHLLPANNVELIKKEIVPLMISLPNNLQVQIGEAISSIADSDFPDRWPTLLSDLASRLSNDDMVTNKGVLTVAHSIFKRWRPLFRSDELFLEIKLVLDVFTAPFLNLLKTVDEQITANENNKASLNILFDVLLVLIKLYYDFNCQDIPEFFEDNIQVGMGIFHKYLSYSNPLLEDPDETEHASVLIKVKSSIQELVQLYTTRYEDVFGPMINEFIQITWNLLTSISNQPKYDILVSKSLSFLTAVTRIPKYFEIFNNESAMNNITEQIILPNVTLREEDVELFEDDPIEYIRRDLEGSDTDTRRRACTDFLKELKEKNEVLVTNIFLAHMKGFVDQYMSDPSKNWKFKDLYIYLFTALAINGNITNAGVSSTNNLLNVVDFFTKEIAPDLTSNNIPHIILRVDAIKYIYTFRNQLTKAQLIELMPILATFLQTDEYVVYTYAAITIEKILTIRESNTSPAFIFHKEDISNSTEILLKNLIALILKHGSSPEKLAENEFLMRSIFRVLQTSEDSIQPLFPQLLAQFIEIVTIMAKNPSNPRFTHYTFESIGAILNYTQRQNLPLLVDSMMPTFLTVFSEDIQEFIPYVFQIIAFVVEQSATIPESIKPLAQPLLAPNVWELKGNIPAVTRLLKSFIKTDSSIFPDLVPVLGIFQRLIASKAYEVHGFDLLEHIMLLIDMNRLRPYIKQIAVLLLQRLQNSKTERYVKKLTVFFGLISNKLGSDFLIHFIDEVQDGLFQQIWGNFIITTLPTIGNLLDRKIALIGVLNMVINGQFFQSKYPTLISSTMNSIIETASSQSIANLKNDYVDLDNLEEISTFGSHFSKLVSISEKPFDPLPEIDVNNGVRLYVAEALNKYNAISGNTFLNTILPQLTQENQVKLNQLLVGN
Assay: pull-down; Cse1‐GST on glutathione‐Sepharose beads (50 μL slurry) incubated overnight with 2 mg total yeast lysate containing importin‐α‐myc variants; washed with PBSMT (PBS, 5 mM MgCl2, 0.5% Triton X‐100) and PBS; bound and unbound fractions blotted with α‐myc and α‐GST; only the target purified

binding | Substance
binds | R44A importin‐α‐myc (from UniProt Q02821 1-530)
binds | importin‐α‐myc (wild type) (from UniProt Q02821 1-530)

From article PMC7891619
